# This list was built around the results that the source calls inconclusive (neither active nor inactive); the mix of calls is not that of the screen. For part of these data: Potencies of inconclusive entries are doubtful fits and often do not repeat. Calls of active or inactive are those of the source. Calls come from the whole dose curve; as a rule, active = well fitted curve in the direction sought with a large enough effect; inconclusive = small, poorly fitted or top-dose-only effect, or another doubt; inactive = no such curve, though single readings can be large; an effect the other way counts as inactive or inconclusive.
# Key:
# [1] = Primary qHTS for inhibitors of nuclear receptor binding SET domain protein 2 (NSD2) in an isogenic RCH-ACV NSD2 p.E1099K mutant (9B) (AID 1645876); conditions: RCH-ACV NSD2 E1099K (9B) viability, CellTiter-Glo, 72 h; series mostly up to 44.9 µM; note: nearly all actives have a fitted effect of over 70% in size; note: potency is the fitted concentration of half-maximal effect
# [2] = Primary qHTS for inhibitors of nuclear receptor binding SET domain protein 2 (NSD2) in an RCH-ACV wild type WT cells (2C) (AID 1645877); conditions: RCH-ACV (leukaemia line) NSD2 WT (2C) viability, CellTiter-Glo, 72 h; series mostly up to 44.9 µM; note: nearly all actives have a fitted effect of over 70% in size; note: potency is the fitted concentration of half-maximal effect
# [3] = Primary redox qHTS assay for identification of artifact compounds. (AID 1845223); conditions: Amplex Red/HRP redox cycling with DTT, fluorescence; series mostly up to 53.8 µM; note: potency is the fitted concentration of half-maximal effect
# Procedure, shortened: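 Redox-cycling detection via DTT (250 uM final) oxidation coupled to Amplex Red (25 uM)/HRP (250 mU/mL) in HBSS. 15 min preincubation plus 30 min after DTT, room temperature. Ex/Em 525/598 nm; 4-parameter Hill fit against DMSO and 10 uM DA3003.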
# [4] = HPAF-II 24hr Apoptosis Induction qHTS against the NCATS CANVASS Library (AID 1347356); conditions: HPAF-II caspase-3/7 Caspase-Glo luminescence; series mostly up to 46.1 µM; note: potency is the fitted concentration of half-maximal effect
# Procedure, shortened: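 Cells seeded at 500 per well, then compounds pin-transferred in an 11-point concentration series. After 24 hours at 37 degrees C, Caspase-Glo 3/7 was added and luminescence measured following 15 min at room temperature.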
# [5] = HPAF-II 12hr Apoptosis Induction qHTS against the NCATS CANVASS Library (AID 1347358); conditions: HPAF-II caspase-3/7 Caspase-Glo luminescence; series mostly up to 46.1 µM; note: potency is the fitted concentration of half-maximal effect
# Procedure, shortened: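 Cells plated at 500 per well are dosed with compound and incubated 12 hours at 37 degrees C. Caspase-Glo 3/7 reagent is added and, after 15 min at room temperature, luminescence proportional to caspase activity is measured.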
# [6] = HEK293 24hr Apoptosis Induction qHTS against the NCATS CANVASS Library (AID 1347359); conditions: HEK293 caspase-3/7 activation, Caspase-Glo luminescence; series mostly up to 46.1 µM; note: potency is the fitted concentration of half-maximal effect
# Procedure, shortened: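 HEK293 cells (500/well, DMEM + 10% FBS) were exposed to compounds in an 11-point series for 24 hours at 37 degrees C, then caspase-3/7 activity was read by Caspase-Glo DEVD luciferase luminescence after 15 min.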
# [7] = HPAF-II 18hr Apoptosis Induction qHTS against the NCATS CANVASS Library (AID 1347360); conditions: HPAF-II caspase-3/7 luminescence; series mostly up to 46.1 µM; note: potency is the fitted concentration of half-maximal effect
# Procedure, shortened: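 HPAF-II cells at 500/well were exposed for 18 h at 37 C to an 11-point compound series. Caspase-3/7 activity was read by Caspase-Glo luminescence after 15 min at RT.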
# [8] = HEK293 12hr Apoptosis Induction qHTS against the NCATS CANVASS Library (AID 1347361); conditions: HEK293 caspase-3/7 Caspase-Glo luminescence; series mostly up to 46.1 µM; note: potency is the fitted concentration of half-maximal effect
# Procedure, shortened: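 HEK293 cells (500/well) were exposed to an 11-point qHTS concentration series for 12 hours at 37 degrees C. Caspase-3/7 activity was then read by DEVD-substrate luciferase luminescence after 15 min at room temperature.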
# [9] = Primary fluorescence-based thiol-reactive (MSTI) qHTS assay for identification of artifact compounds. (AID 1845221); conditions: MSTI thiol-reactivity probe, 1 h; series mostly up to 53.8 µM; note: potency is the fitted concentration of half-maximal effect;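 note: thiol-reactive compounds lower the probe fluorescence signal; nearly all actives have a fitted effect of over 65% in size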
# Procedure, shortened: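 MSTI probe at 4 uM final in 2% DMSO/PBS pH 7.4; compounds, 1 h at room temperature in dark. Fluorescence Ex/Em 525/598 nm, normalised to Acetyl-MSTI and MSTI, fitted to 4-parameter Hill.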
# [10] = qHTS for ATAD5 Agonist screened against the NCATS CANVASS Library (AID 1347367); conditions: HEK293T ATAD5-luciferase reporter, luminescence, 16 h; series mostly up to 46.1 µM;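 note: luciferase reporter driven by ATAD5 which rises upon DNA damage; potency is the fitted concentration of half-maximal effect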
# Procedure, shortened: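 Luciferase reporter under ATAD5 control, stably integrated in HEK293T cells (2000/well). Compounds (11 points) incubated 16 h at 37C; viability read first by CellTiter-Fluor, then luminescence reporting ATAD5 activation. MMS positive control.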
# [11] = 10-beta competent E. coli microbial cell viability qHTS against the NCATS CANVASS Library (AID 1347376); note: potency is the fitted concentration of half-maximal effect; conditions: E. coli 10-beta viability, BacTiter-Glo ATP luminescence, overnight; series mostly up to 46.1 µM
# Procedure, shortened: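 Bacterial suspension diluted to 0.2 OD was dosed with compounds, 11-point series, then held overnight at 37C. BacTiter-Glo reagent was added, and after 20 min at room temperature ATP-dependent luminescence was measured.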
# [12] = Inflammasome Signaling qHTS Counterscreen: IL-1-beta AlphaLISA counterscreen against the NCATS CANVASS Library (AID 1347381); conditions: Purified IL-1beta AlphaLISA signal interference counterscreen; series mostly up to 57.5 µM;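 note: cell-free check with purified IL-1β in medium and no THP-1 cells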
# Procedure, shortened: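 Purified IL-1-beta (4 pg/well) + compound, 11-pt conc. series; acceptor beads 6 ug/mL + biotin-Ab 0.6 nM final, 1 h RT; SA-donor 24 ug/ml final, 30 min dark RT; read ex 680/em 615.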
# [13] = Cytotoxicity qHTS for assessment of Hepg2 cells membrane integrity screened against the NCATS CANVASS Library (AID 1347387); conditions: HepG2 LDH release (CytoTox-ONE) fluorescence, 5 h; series mostly up to 46.1 µM; note: potency is the fitted concentration of half-maximal effect
# Procedure, shortened: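 Cells were seeded at 2000 per well and left overnight to attach. Compounds were pin-transferred to give 0.59 nM - 46 uM in an 11-point series and incubated 5 hr at 37C. CytoTox-ONE reagent was added and, after 10 min at room temperature, fluorescence (ex 560, em 590 nm) was read.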
# Tags give direction and shape of the fitted curve.
structure (smiles),measurement,setting,value
CC(=O)O[C@H]1C[C@@H]2[C@]3(CC[C@]4(C)[C@@H](C5(C)CCC(C(C)(C)O)O5)[C@@H](O)C[C@@]24C)C[C@@]32CC[C@H](O[C@@H]3OC[C@@H](O)[C@H](O)[C@H]3O)C(C)(C)[C@H]12 (some centres not stated),Potency,[1],"inconclusive: 6.82 µM [inhibitor, single point]"
same,Potency,[2],"inconclusive: 8.58 µM [inhibitor, partial curve, poor fit]"
same,Potency,[3],"inconclusive: 7.07 µM [activator, partial curve, poor fit]"
CC/C=C\C[C@H]1C(=O)C=C[C@@H]1CCCCCCCC(=O)O,Potency,[2],"inconclusive: 23 µM [inhibitor, single point]"
same,Potency,[3],"inconclusive: 37.7 µM [activator, partial curve, poor fit]"
C/C=C1/CN2C3CC1C1C=CC(=O)N4c5ccccc5[C@@]3(C[C@@H]2C2=C[C@H]3C5CC6N(CC[C@@]67c6ccccc6N(C2=O)[C@@H]37)C/C5=C/C)[C@H]14 (some centres not stated),Potency,[4],"inconclusive: 33.2 µM [activator, partial curve, poor fit]"
same,Potency,[5],"inconclusive: 37.2 µM [activator, partial curve, poor fit]"
same,Potency,[6],"inconclusive: 29.6 µM [activator, single point]"
same,Potency,[7],"inconclusive: 37.2 µM [activator, partial curve, poor fit]"
same,Potency,[8],"inconclusive: 33.2 µM [activator, single point]"
C=C(C(=O)O)[C@H]1C[C@]2(C)C(=O)CC[C@]23O[C@H]1C[C@@H]3C,Potency,[9],"inconclusive: 21.2 µM [inhibitor, partial curve]"
same,Potency,[3],inactive
COc1cccc(OC)c1-c1nc(C(=O)N[C@@H](CC(C)C)C(=O)O)cn1-c1ccnc2cc(Cl)ccc12,Potency,[9],inactive
same,Potency,[3],"inconclusive: 1.89 µM [activator, full curve, poor fit]"
CC1CC(=O)[C@]2(O)C(C(=O)OCCc3ccc(O)c(O)c3)=CO[C@@H](O[C@@H]3O[C@H](CO)[C@@H](O)[C@H](O)[C@H]3O)[C@H]12 (some centres not stated),Potency,[1],inactive
same,Potency,[9],active: 2.92 µM
CC(C)=CCC/C(C)=C/Cc1c(O)c(CC=C(C)C)c(O)c2c(=O)c3cc(O)ccc3oc12,Potency,[4],inactive
CC1=CC(=O)C(=C(C)C)CC2C(C)(O)CCC12O (configuration not stated),Potency,[2],inactive
same,Potency,[9],"inconclusive: 11.9 µM [inhibitor, partial curve]"
same,Potency,[3],inactive
COc1ccc2c(c1O)OC[C@H]1c3ccc(O)cc3O[C@@H]21,Potency,[9],"inconclusive: 21.2 µM [inhibitor, partial curve, poor fit]"
CCC(=O)CCCCC[C@@H]1NC(=O)[C@H]2CCCCN2C(=O)[C@H](C(C)C)NC(=O)[C@H](Cc2cn(OC)c3ccccc23)NC1=O,Potency,[10],active: 3.31 µM
CC[C@@H]1[C@H](C)[C@H](c2cc(OC)c(OC)cc2OC)[C@@H](C)[C@H](c2cc(OC)c(OC)cc2OC)[C@]12C=C(OC)C(=O)C=C2OC,Potency,[5],"inconclusive: 33.2 µM [activator, single point]"
same,Potency,[7],"inconclusive: 26.4 µM [activator, single point]"
same,Potency,[11],"inconclusive: 16.6 µM [rising, partial curve, poor fit]"
CN1C(=O)[C@]23SS[C@@]1(C)C(=O)N2[C@H]1Nc2ccccc2[C@]1(c1c[nH]c2ccccc12)[C@@H]3O,Potency,[4],"inconclusive: 0.332 µM [activator, full curve]"
same,Potency,[5],active: 0.59 µM
same,Potency,[6],active: 5.26 µM
same,Potency,[7],active: 0.469 µM
same,Potency,[8],active: 5.26 µM
C/C(=C\CC[C@@H](C)[C@H]1CC[C@]2(C)C3=CCC4C(C)(C)[C@@H](O)C[C@@H](O)[C@]4(C)C3[C@H](O)C[C@@]12C)CO (some centres not stated),Potency,[7],inactive
CC[C@H]1[C@H](C)[C@H](c2cc(OC)c(OC)cc2OC)[C@@H](C)[C@H](c2cc(OC)c(OC)cc2OC)[C@@]12C=C(OC)C(=O)C=C2OC,Potency,[6],"inconclusive: 37.2 µM [activator, single point]"
same,Potency,[7],inactive
same,Potency,[8],"inconclusive: 33.2 µM [activator, single point]"
C=C[C@@]1(C)CC[C@@H]([C@H](C)C(C)=O)O1,Potency,[12],inactive
CC(C)[C@@H]1CC(=O)c2coc3c2[C@H]1C[C@@H](C)C3=O,Potency,[7],inactive
CC(=O)O[C@@H]1C=C2C(=O)OC[C@]2(O)[C@@]2(C)CCCC(C)(C)[C@H]12,Potency,[4],"inconclusive: 11.8 µM [activator, single point]"
same,Potency,[5],"inconclusive: 11.8 µM [activator, single point]"
same,Potency,[6],"inconclusive: 26.4 µM [activator, single point]"
same,Potency,[7],"inconclusive: 10.5 µM [activator, single point]"
same,Potency,[8],"inconclusive: 14.8 µM [activator, partial curve]"
same,Potency,[13],"inconclusive: 33.1 µM [rising, single point]"

# From PubChem BioAssay (NCATS)
